From paper PMC4336329 (PLoS ONE, 2015)
Hit rate of the full screen: of about 310,000 compounds, about 2,200 (0.71%) showed an effect of 50% or more. Effects have a minus sign here. The list shows a part of the results.

Each compound was assayed against human ether-à-go-go-related gene (hERG) potassium channel (human, UniProt Q12809) (assay: primary screen, population patch clamp on CHO cells stably expressing hERG).
Sequence of human ether-à-go-go-related gene (hERG) potassium channel (Q12809 whole entry, looked up): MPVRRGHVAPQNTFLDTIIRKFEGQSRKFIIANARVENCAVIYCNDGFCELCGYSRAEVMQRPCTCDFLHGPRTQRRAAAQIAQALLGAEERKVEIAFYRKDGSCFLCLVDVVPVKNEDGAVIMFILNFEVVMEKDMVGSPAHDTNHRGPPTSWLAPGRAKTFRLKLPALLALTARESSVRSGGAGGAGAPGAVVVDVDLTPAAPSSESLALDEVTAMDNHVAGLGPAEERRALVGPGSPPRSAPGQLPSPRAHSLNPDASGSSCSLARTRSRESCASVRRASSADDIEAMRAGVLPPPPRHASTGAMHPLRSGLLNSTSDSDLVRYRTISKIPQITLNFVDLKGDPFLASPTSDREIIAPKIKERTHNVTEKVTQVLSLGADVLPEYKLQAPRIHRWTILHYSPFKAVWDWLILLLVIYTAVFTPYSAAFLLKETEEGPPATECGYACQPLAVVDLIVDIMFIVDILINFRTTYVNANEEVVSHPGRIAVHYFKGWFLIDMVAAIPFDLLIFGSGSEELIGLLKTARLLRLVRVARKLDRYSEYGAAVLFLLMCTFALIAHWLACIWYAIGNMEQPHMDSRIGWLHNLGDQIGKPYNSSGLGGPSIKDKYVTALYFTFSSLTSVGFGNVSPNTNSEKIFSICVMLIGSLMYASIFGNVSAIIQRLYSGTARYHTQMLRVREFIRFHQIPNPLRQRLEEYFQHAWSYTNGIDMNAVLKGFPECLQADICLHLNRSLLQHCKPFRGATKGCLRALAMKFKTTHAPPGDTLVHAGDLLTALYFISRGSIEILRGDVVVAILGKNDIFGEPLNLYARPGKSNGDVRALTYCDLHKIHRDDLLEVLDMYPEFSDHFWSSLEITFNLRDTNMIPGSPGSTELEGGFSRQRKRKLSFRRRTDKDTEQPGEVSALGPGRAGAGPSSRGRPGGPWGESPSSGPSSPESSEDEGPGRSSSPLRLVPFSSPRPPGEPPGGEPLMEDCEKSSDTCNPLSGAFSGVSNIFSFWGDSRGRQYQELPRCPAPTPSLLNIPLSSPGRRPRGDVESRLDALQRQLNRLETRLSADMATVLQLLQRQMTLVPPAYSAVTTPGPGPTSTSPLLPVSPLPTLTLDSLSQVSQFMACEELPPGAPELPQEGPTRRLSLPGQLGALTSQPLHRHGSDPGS

SMILES | hERG current change (%, negative = inhibition) at 1uM
COc1cccc(CN(C)CC(=O)Nc2ccccc2C(=O)NC2CC2)c1 | -10.2%
COCCn1nnnc1C(c1cc2cc(OC)c(OC)cc2[nH]c1=O)N1CCN(c2ccc(O)cc2)CC1 (stereo not drawn) | 13.9%
CNCC(=O)Nc1c(C)n[nH]c1C | 11.3%
CCCCC1=CC2=CC(=O)C(C)(OC(=O)CC)C(=O)C2=CN1c1cccc(C#N)c1 (stereo not drawn) | 10.7%
O=C(O)CC1S/C(=N/N=C/c2ccc(-c3ccc(Cl)cc3[N+](=O)[O-])o2)NC1=O (stereo not drawn) | 7.9%
Cc1ccc2nc(Cl)c(/C=N/Nc3nc(C)cc(C)n3)c(=O)n2c1 | -0.611%
C=CCn1c(SCC(=O)c2c(N)n(C)c(=O)n(C)c2=O)nc2sc(CC)cc2c1=O | -7.91%
CC(C)c1cccc(C(C)C)c1NC(=O)COC(=O)C1=COCCO1 | 7.2%
Fc1ccccc1NC(=S)Nc1ccc(CN2CCOCC2)cc1 | 7.21%
O=C1CCC(C(=O)N2CCc3c(Cl)cccc3C2)CN1CCCN1CCOCC1 (stereo not drawn) | 23%
Nc1c(S(=O)(=O)c2ccccc2)c2nc3ccccc3nc2n1Cc1ccco1 | -10.3%
Cn1c(=O)n(-c2ccc(Cl)cc2)c(=O)c2c3c(sc21)COC(C)(C)C3 | 12%
O=C(Nn1c(Cc2cccs2)nc2ccccc2c1=O)c1cccs1 | -0.502%
CC(C)COc1ccc(CNC(=S)N/N=C/c2ccc([N+](=O)[O-])cc2)cc1 | 1.75%
CCOC(=O)c1ccc(NC(=O)c2cccc(S(=O)(=O)N3CCOCC3)c2)cc1 | 0.504%
Cc1ccccc1CCN1CCCC(CN(C)CC(C)(C)C)C1 (stereo not drawn) | 11.8%
CC(C)CC(=O)NCc1ccc(F)cc1 | 16.5%
N#CC(C(=O)OC1CCCCC1)c1nc2ccccc2nc1N1CCOCC1 (stereo not drawn) | -22.9%
CCc1cccc(N(C(=O)c2csnn2)C(C(=O)NC2CCCCC2)c2cccnc2)c1 (stereo not drawn) | 9.58%
CCCCN(C)CCNC(=O)C1CCCN(S(=O)(=O)c2cccc3nsnc23)C1 (stereo not drawn) | -1.28%
Cc1nc2ccccc2c(N)c1C(=O)/C=C/c1ccccc1 | -29%
CCCCCOC(=O)Nc1ccc(S(=O)(=O)Nn2cnnc2)cc1 | 7.36%

SMILES | hERG current change (%, negative = inhibition) at 1uM
O=C(CN(C(=O)c1ccc(Cl)cc1)N1C(=O)C2CCCCC2C1=O)c1ccc(Cl)cc1 (stereo not drawn) | 9.14%
COCCNc1nc(N)c([N+](=O)[O-])c(NC2CCCCC2)n1 | 6.89%
Cc1ccc(NS(=O)(=O)c2cccs2)cc1S(=O)(=O)N1CCCCCC1 | 16.5%
Cc1ccc(S(=O)(=O)N2CCCCC2)cc1NC(=O)COC(=O)CNC(=O)c1cc(Cl)cc([N+](=O)[O-])c1 | 2.42%
CCc1cccc(C)c1NC(=O)CCOc1ccccc1 | 12.1%
Cc1ccc(S(=O)(=O)N2CCOCC2)cc1NC(=O)COC(=O)CCn1c(C)csc1=O | 5.21%
COc1ccccc1-c1sc2cc3c(cc2c1-c1ccc2c(c1)OCO2)OCO3 | 8.66%
CC(=O)Nc1ccc2nc(-c3ccccn3)[nH]c2c1 | 3.78%
CCCCCCCCCC(=O)OCC(O)CO (stereo not drawn) | 9.55%
CCOc1nc(-c2ccccc2)c2cc(C)ccc2n1 | 9.98%
O.OC[C@H]1O[C@@H](n2cnc3c(NC4CCCC4)nc(Cl)nc32)[C@H](O)[C@@H]1O | 3.87%
CC(NC(=O)c1cc(S(=O)(=O)N2CCCC2)ccc1Cl)c1ccccn1 (stereo not drawn) | 13%
CC(=O)O[C@H]1CC[C@@]2(C)C(=CC[C@H]3[C@@H]4CC[C@H](C(C)=O)[C@@]4(C)CC[C@@H]32)C1 | 15.1%
O=C1/C(=C/c2ccc(O)cc2)COc2ccccc21 | 20.1%
Cc1ccnc(OC(C(=O)O)C(OCc2ccccc2)(c2ccc(F)cc2)c2ccc(F)cc2)n1 (stereo not drawn) | 18.7%
Cc1cc(C)n(-c2cc(O)c(-n3nc(C)cc3C)cc2O)n1 | 17.2%
CCCNC(=S)N1CCN(CC)CC1.O=C(O)C(=O)O | 7.7%
O=C(OCC(=O)N1CCc2ccccc2C1)c1cc(=O)[nH]c2ccccc12 | 10.2%
CCc1nn2cc(C(=O)c3cc(C)ccc3O)cnc2c1-c1ccc(F)cc1 | 14.3%
Cc1nnc(SCc2ccc(Cl)c(Cl)c2)s1 | 11.3%
CCN1CCN(C(=O)CN(c2ccc(F)cc2)S(=O)(=O)c2ccc(OC)c(OC)c2)CC1 | -19.4%
Cc1cccc(N=C2NC(=O)/C(=C/c3cccs3)S2)c1 | 14.4%

SMILES | hERG current change (%, negative = inhibition) at 1uM
NC(=O)C1(N2CCCCC2)CCN(C(=S)Nc2ccc(S(N)(=O)=O)cc2)CC1 | 11.8%
O=C(NCc1ccc(F)cc1)c1ccc(Cl)c(NC2=NC3CS(=O)(=O)CC3S2)c1 (stereo not drawn) | 2.71%
O=C(CN1Cc2ccccc2C1=O)Nc1ccc2c(c1)OCCO2 | 6.01%
CCCCn1c(N)c(N(CC(C)C)C(=O)c2cc(S(=O)(=O)N3CCCCC3)ccc2C)c(=O)[nH]c1=O | 15.5%
C=CCSc1nnc(NC(=O)c2ccc(N3CCCC3=O)cc2)s1 | 11.8%
CCOC(=O)c1cnc2c(c(C)nn2C)c1Oc1cc(Cl)cc(Cl)c1 | 12.2%
O=C(CC(=O)N/N=C\c1c(Cl)cccc1Cl)NCc1ccccc1 | 9.58%
Cc1cccc(C)c1NC(=O)C(=O)NCc1ccccn1 | 3.24%
CCC(=O)N1c2ccccc2NC2=C(C(=O)CC(c3ccco3)C2)C1c1ccco1 (stereo not drawn) | 3.54%
Cc1cc(NCCCn2ccnc2)n2nc(-c3ccc(Cl)cc3)cc2n1 | -14.7%
CCc1ccc(NC(=S)N2CCCC2)cc1 | 15.3%
O=C(c1ccco1)N1CCN(S(=O)(=O)c2cccc3nsnc23)CC1 | 1.54%
Nc1ccc2oc(-c3cc(Br)ccc3Cl)nc2c1 | 5.83%
CC(C)CC(=O)Nc1nnc(SCC(=O)NCc2ccco2)s1 | 7.7%
CSCCC(NC(=O)c1ccccc1)C(=O)N/N=C(\C)Cc1ccccc1 (stereo not drawn) | 9.78%
O=C(c1ccc(N2CCCC2=O)cc1)N1CCN(c2ccccc2O)CC1 | -8.28%
O=C1Nc2cc(C(=O)N3CCC(N4CCCCC4)CC3)ccc2S/C1=C\c1ccccc1 | -1.99%
Cn1c(=O)c2[nH]cnc2n(-c2ccccc2)c1=O | 5.46%
Cc1ccc(C)c(C(=O)CSc2n[nH]c(C)n2)c1 | 0.472%
COc1cc(CC(=O)NCC2CCCCC2)cc(OC)c1OC | 15.4%
Cc1sc(NC(=O)C2CCCCC2C(=O)O)c(C(N)=O)c1-c1ccccc1 (stereo not drawn) | 12.2%
O=C(Nc1cccc(S(=O)(=O)C(F)F)c1)c1ccc(S(=O)(=O)N2CCCCC2)cc1 | 8.37%

SMILES | hERG current change (%, negative = inhibition) at 1uM
CC(C)(C)C(=O)COC(=O)c1cc(-c2cccnc2)nc2ccccc12 | -3.68%
O=C(Nc1cnc2ccccc2c1)C1COc2ccccc2O1 (stereo not drawn) | -6.77%
Cc1ccc(NS(=O)(=O)c2cc(NC(=O)c3cc4c(s3)CCCC4)ccc2C)c(C)c1 | 7.78%
CCN(CC)CCSc1nc2ccccc2n1Cc1ccccc1.Cl | -79%
COc1ccccc1CNC(=O)N[C@@H](Cc1ccccc1)C(=O)O | 4.81%
O=C1NC(=O)/C(=C\c2ccc(O)cc2O)S1 | 12.8%
CN1CCN(c2nc(-c3ccccc3Cl)nc3ccccc23)CC1 | -19.8%
CCOc1cc(C2NC(=O)NC(O)(C(F)(F)F)C2C(=O)c2ccccc2)ccc1OC (stereo not drawn) | 0.368%
Cc1ccc(S(=O)(=O)c2nc(-c3ccc(F)cc3)oc2SCC(=O)NCC2CCCO2)cc1 (stereo not drawn) | 12.6%
Cc1cccc(Cn2cc3c(=O)n(Cc4cccc(F)c4)nc-3c3ccccc32)c1 | 12.5%
O=C(CS(=O)(=O)c1ccccc1)Nc1ccc(S(=O)(=O)Nc2ncccn2)cc1 | 20.8%
CC(C)CCNC(=O)CN(CC1CCCO1)C(=O)CCC(=O)Nc1nccs1 (stereo not drawn) | 11.2%
CCOC(=O)NC(=O)/C(N=Nc1cc(C)cc(C)c1)=C(\C)O | 12.3%
COC(=O)c1ccc(OCCOc2ccc(C(=O)OC)cc2)cc1 | -12.9%
COc1ccc(CC(=O)NCCCSc2ccccc2)cc1OC | 6.49%
Cc1ccc(C(=O)NCC(=O)N2CCCCCCC2)cc1C | 6.7%
CC(Oc1ccccc1Cl)C(=O)N1CCOCC1 (stereo not drawn) | 13.4%
C=CCSc1nnc(-c2cc3c(-c4ccccc4)nn(C)c3s2)n1C | 7.5%
O=C(COc1ccc(S(=O)(=O)N2CCCC2)cc1)NCc1cccnc1 | 6.1%
COc1c(F)c(F)c(C(=O)Nc2ccc(-c3nc4ccccc4[nH]3)cc2)c(F)c1F | 13.3%
CSc1ccc(/C=C(\NC(=O)c2ccc(C)cc2)C(=O)Nc2cccc(C)c2)cc1 | 14.4%
